The inconclusive results got no clear call from the source; some entries with a clear call stand among them for comparison. Where the call is inconclusive, the potency comes from a doubtful curve fit. Calls of active or inactive are those of the source. The call rests on the fitted dose curve; in most records, active means well fitted activation curve with a large enough effect; inconclusive means small, poorly fitted or top-dose-only effect; inactive means no such curve, though single readings can be large or run the other way.
Target: Relaxin receptor 1 (Homo sapiens) (UniProt Q9HBX9)
Assay: qHTS Assay for Agonists of the Relaxin Receptor RXFP1: RXFP1 Hit Validation; further: nearly all actives have a fitted effect of over 65% in size;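 on activation: cAMP rise lowers the TR-FRET signal in lysed cells with PDE4 inhibitor present; 0% = buffer-only basal and 100% = 29 nM porcine relaxin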
Settings: HEK293T-RXFP1 cAMP TR-FRET, 30 min; series mostly up to 115 µM; activation: at the top concentration
Potency means the concentration at half of the fitted maximal effect; tags describe the fitted curve by direction and shape.

Sequence of UniProt Q9HBX9 (Q9HBX9 whole entry, looked up): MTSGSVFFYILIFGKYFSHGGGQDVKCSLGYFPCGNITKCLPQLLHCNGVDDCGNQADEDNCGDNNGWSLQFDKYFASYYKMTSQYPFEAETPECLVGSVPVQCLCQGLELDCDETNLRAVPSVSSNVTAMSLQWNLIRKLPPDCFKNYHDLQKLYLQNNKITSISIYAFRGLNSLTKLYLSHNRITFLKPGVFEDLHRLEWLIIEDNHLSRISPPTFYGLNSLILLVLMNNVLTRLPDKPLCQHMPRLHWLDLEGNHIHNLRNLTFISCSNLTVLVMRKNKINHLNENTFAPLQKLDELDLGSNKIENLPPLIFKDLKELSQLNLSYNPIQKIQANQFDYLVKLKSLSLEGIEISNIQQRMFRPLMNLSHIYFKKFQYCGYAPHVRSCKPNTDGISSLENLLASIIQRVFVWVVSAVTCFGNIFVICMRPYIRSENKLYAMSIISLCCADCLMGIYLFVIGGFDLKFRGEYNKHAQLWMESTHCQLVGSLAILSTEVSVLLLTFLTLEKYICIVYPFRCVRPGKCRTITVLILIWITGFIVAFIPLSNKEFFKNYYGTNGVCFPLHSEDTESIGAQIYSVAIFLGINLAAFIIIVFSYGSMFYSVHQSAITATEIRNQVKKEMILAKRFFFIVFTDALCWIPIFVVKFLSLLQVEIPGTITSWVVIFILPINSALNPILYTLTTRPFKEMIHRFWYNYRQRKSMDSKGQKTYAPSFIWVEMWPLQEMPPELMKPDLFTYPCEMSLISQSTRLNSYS

Row | SMILES | Potency | activation
1 | CC1(C)Cc2nc3sc4c(SCC(=O)NC(c5ccccc5)c5ccccc5)ncnc4c3cc2CO1 | active: 4.88 µM | –
2 | CN(C)c1ccc(NC(=O)C2C3C=CC(C3)C2C(=O)O)cc1 (configuration not stated) | – | inactive: -7.21%
3 | O=C(OCc1nc2ccsc2c(=O)[nH]1)c1cccc(S(=O)(=O)N2CCOCC2)c1 | active: 34.6 µM | –
4 | O=C(Nc1cc(S(=O)(=O)N2CCOCC2)ccc1N1CCOCC1)c1cn2ccccc2n1 | inconclusive: 23.7 µM [activator, partial curve] | –
5 | O=C(Nc1ccccc1C(=O)NCCc1ccccc1)c1ccco1 | – | inactive: -11.1% [at 125 µM]
6 | COc1ccc(S(=O)(=O)Nc2ccccn2)c(C)c1C | – | inactive: 1.99% [at 45 µM]
7 | S=c1nc[nH]c2c1[nH]c1ccccc12 | active: 6.9 µM | –
8 | CCOC(=O)N1CCN(C(=O)CSc2ccc3nnc(-c4cccnc4)n3n2)CC1 | inconclusive: 15.4 µM [activator, partial curve] | –
9 | CCN(CC)S(=O)(=O)c1ccc(C)c(NC(=O)Cn2cnc3cc([N+](=O)[O-])ccc3c2=O)c1 | active: 38.9 µM | –
10 | Nc1cc2ccncc2c2ccccc12 | – | inactive: 5.74%
11 | CCN(CC)CCCCCC(=O)Nc1ccccc1C(=O)Nc1ccccc1 | – | inactive: -3.6% [at 125 µM]
12 | NN1C(=O)/C(=C2/Sc3ccccc3N2CCCS(=O)(=O)O)SC1=S | inconclusive: 21.9 µM [activator, partial curve] | –
13 | COC(=O)c1ccc(COc2ncnc3ccccc23)o1 | inconclusive: 34.6 µM [activator, partial curve] | –
14 | COc1ccc(CN2C(=O)c3cccnc3C2=O)cc1S(=O)(=O)N1CCCC(C)C1 (configuration not stated) | inconclusive: 12.3 µM [activator, partial curve] | –
15 | Brc1ccc(-c2nn3c(-c4ccco4)nnc3s2)o1 | inconclusive: 12.3 µM [activator, partial curve] | –
16 | Cc1cc(=O)n2nc(N3CCCC3C(=O)Nc3ccccc3C)sc2n1 (configuration not stated) | inconclusive: 43.6 µM [activator, partial curve] | –
17 | C=CCSc1nc2c(c(=O)[nH]1)C(C(C)C)C(C#N)=C(N)O2 (configuration not stated) | active: 27.5 µM | –
18 | CCCCn1c(SCC(=O)N2CCOCC2)nc2c1c(=O)n(C)c(=O)n2C | inconclusive: 43.6 µM [activator, partial curve] | –
19 | O=C(O)c1ccc(N=C2NC(=O)C(CO)(CO)S2)cc1 | – | inactive: 4.45% [at 45 µM]

Row | SMILES | Potency | activation
20 | O=C(Nc1ccccc1C(=O)N1CCCCC1)c1ccco1 | – | inactive: 3.58% [at 125 µM]
21 | O=C(O)CCC(=O)N1CCN(c2nc(-c3ccccc3Cl)c3cc(Br)ccc3n2)CC1 | – | inactive: 28.4% [at 45 µM]
22 | Cc1cccn2c(=O)c3cc(C(=O)NCc4ccc(F)cc4)c(=N)n(CC4CCCO4)c3nc12 (configuration not stated) | inconclusive: 43.6 µM [activator, partial curve] | –
23 | O=c1c2ccccc2cnn1Cc1n[nH]c(=S)n1-c1ccc(F)c(Cl)c1 | inconclusive: 15.5 µM [activator, partial curve] | –
24 | Cn1c(=O)c2sccc2n2c(CCCC(=O)NC3CCN(Cc4ccccc4)CC3)nnc12 | inconclusive: 38.9 µM [activator, partial curve] | –
25 | O=S(=O)(Nc1ccccc1C(F)(F)F)c1ccc(-c2ccccn2)s1 | inconclusive: 21.9 µM [activator, partial curve] | –
26 | Cc1cc(C)nc(/N=C(\N)Nc2ccc(S(=O)(=O)Nc3nccc(C)n3)cc2)n1 | inconclusive: 27.5 µM [activator, partial curve] | –
27 | CCS(=O)(=O)c1nc(S(=O)(=O)c2ccc(C)cc2)c(N2CCN(C)CC2)s1 | inconclusive: 30.9 µM [activator, partial curve] | –
28 | O=[N+]([O-])c1cc2c(c(CSc3nnc4ccccn34)c1)OCOC2 | active: 30.9 µM | –
29 | Cc1cccc(-c2nnc(SCC(=O)NC3CC3)n2C)c1 | – | inactive: -32%
30 | COc1cccc(C(=O)CSc2nnc(-c3cc(OC)cc(OC)c3)o2)c1 | active: 13.8 µM | –
31 | NCCNC(=O)Cc1ccc(NC(=O)Cc2ccc(Nc3ncnc4c3ncn4[C@@H]3O[C@H](CO)[C@@H](O)[C@H]3O)cc2)cc1 | active: 1.23 µM | –
32 | CCOC(=O)c1sc(=NC(=O)c2ccc(S(=O)(=O)N(C)c3ccccc3)cc2)n(C)c1C | active: 19.4 µM | –
33 | COc1ccc(NC(=O)CSc2ccc3nnc(-c4cccnc4)n3n2)cc1OC | inconclusive: 61.6 µM [activator, partial curve] | –
34 | CCOC(=O)c1nnn2c1nc(SCC(C)=O)c1ccccc12 | inconclusive: 27.5 µM [activator, partial curve] | –
35 | COc1cc(/C=N/NC(=O)Cn2cnc3c2c(=O)n(C)c(=O)n3C)ccc1O | inconclusive: 38.9 µM [activator, partial curve] | –
36 | CCOC(=O)CNC(=O)CSc1ccc2nnc(-c3cccnc3)n2n1 | – | inactive: -30%
37 | Cn1c(=O)c2c(nc(CN3CCN(C(=O)c4ccco4)CC3)n2CCCO)n(C)c1=O | inconclusive: 38.9 µM [activator, partial curve] | –

Source: PubChem BioAssay AID489012 (National Center for Advancing Translational Sciences (NCATS), 2010)
